Measurements as given in PubChem BioAssay AID2675 (National Center for Advancing Translational Sciences (NCATS), 2010).
Out of some 280,000 compounds screened, about 100 (0.036%) were called active. Inconclusive results, whose numbers are uncertain, are shown with a selection of clear calls. The call rests on the fitted dose curve; in most records, active means well fitted inhibition curve with a large enough effect in the signal ratio, with a control signal flat (not every such curve was filed as active); inconclusive means small, poorly fitted or top-dose-only effect, or effect the other way, or a change in a side signal; inactive means no such curve, though single readings can be large or run the other way; the % refers to the signal ratio. Potencies beside an inconclusive call are fits to weak or partial responses and may not hold up. A note “side channel” means that the fit belongs to a control or component signal, not to the main read-out.

Target: Muscleblind-like protein 1 (Homo sapiens) (UniProt Q9NR56)
UniProt Q9NR56, sequence (Q9NR56 whole entry, looked up): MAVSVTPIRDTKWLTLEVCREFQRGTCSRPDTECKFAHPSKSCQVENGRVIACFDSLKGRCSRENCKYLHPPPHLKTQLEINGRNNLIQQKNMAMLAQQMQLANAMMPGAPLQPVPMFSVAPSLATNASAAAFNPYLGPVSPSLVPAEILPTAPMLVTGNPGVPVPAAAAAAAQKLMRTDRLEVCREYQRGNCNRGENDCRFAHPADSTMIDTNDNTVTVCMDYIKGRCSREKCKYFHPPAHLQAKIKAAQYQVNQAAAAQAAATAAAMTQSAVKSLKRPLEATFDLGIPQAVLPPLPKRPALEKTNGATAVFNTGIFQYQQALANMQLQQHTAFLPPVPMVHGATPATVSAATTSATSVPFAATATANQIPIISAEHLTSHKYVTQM
Test: qHTS Assay for Inhibitors of MBNL1-poly(CUG) RNA binding
Conditions: TR-FRET MBNL1-His/biotin-(CUG)12 binding, 665/545 ratio; series mostly up to 57.5 µM
How it was run: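 Compounds (final 92 nM to 58 uM) are added to His-tagged MBNL1 and biotin-(CUG)12, then terbium anti-His antibody and streptavidin-XL665 (5 nM final). After 60 min at room temperature, the 665/545 nm ratio is read.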
Potency means the concentration at half of the fitted maximal effect; tags describe the fitted curve by direction and shape or compound fluorescence and quenching.

Question: For CC(=O)NCc1ccc(-c2csc(-c3cccs3)n2)cc1, which Potency is on record?
Answer: inconclusive: 17.8 µM [quencher, side channel, partial curve]

Question: For O=[N+]([O-])c1ccc(N/N=C/c2ccc[nH]2)cc1, which Potency is on record?
Answer: inconclusive: 3.98 µM [quencher, side channel, partial curve]

Question: Which Potency does the source give for CSC1=NSC2=NC(=O)/C(=C\c3cccs3)C(=N)N12 here?
Answer: inconclusive: 20 µM [quencher, side channel, partial curve]

Question: For COC(=O)c1ccccc1NC(=O)C(C)Oc1ccccc1 (stereo unspecified), which Potency is on record?
Answer: inconclusive: 39.8 µM [quencher, side channel, single point]

Question: For CC1CCN(c2ccc(NC(=S)NC(=O)c3ccc(-c4cccc([N+](=O)[O-])c4)o3)cc2)CC1, which Potency is on record?
Answer: inactive

Question: Which Potency does the source give for O=C(/C=C/c1cccc(Cl)c1)Nc1ccncc1 here?
Answer: inconclusive: 25.1 µM [quencher, side channel, partial curve]

Question: For CCc1nccn1C(=O)c1cnn2c(C(F)F)cc(-c3ccccc3)nc12, which Potency is on record?
Answer: inconclusive: 20 µM [quencher, partial curve]

Question: With CCn1c(=O)c2cc(C(=O)NCCCOC)sc2c2ccccc21 as the compound, how does the Potency read?
Answer: inconclusive: 17.8 µM [quencher, side channel, single point]

Question: Which Potency does the source give for CCOC(=O)C1=C(C)N=c2s/c(=C/c3ccc(OCC(=O)O)cc3)c(=O)n2C1c1cc(OC)c(OC)c(OC)c1 (stereo unspecified) here?
Answer: inconclusive: 20 µM [quencher, side channel, partial curve]

Question: With Nc1ncnc(Sc2ncccn2)c1[N+](=O)[O-] as the compound, how does the Potency read?
Answer: inconclusive: 11.2 µM [quencher, side channel, partial curve]

Question: How did the Potency turn out when N/C(=N\OC(=O)CCC1CCCCC1)c1cccc([N+](=O)[O-])c1 was run?
Answer: inconclusive: 39.8 µM [quencher, side channel, single point]

Question: Which Potency does the source give for Cc1c(Cl)c([N+](=O)[O-])nn1CCCC(=O)N1CCN(c2ccccc2)CC1 here?
Answer: inconclusive: 35.5 µM [quencher, side channel, single point]

Question: For COc1ccc(CCC(=O)Nc2cc(Cl)ccc2N2CCN(C)CC2)cc1, which Potency is on record?
Answer: inactive

Question: CN1CCN(C(=O)/C(=C/c2ccc([N+](=O)[O-])cc2)NC(=O)c2ccccc2)CC1 was tested. Which Potency did it give?
Answer: inconclusive: 15.8 µM [quencher, side channel, partial curve]

Question: With CCN(CC)C(=O)c1cccc2c1C(=O)c1ccccc1-2 as the compound, how does the Potency read?
Answer: inconclusive: 31.6 µM [quencher, side channel, single point]

Question: With CC(C)CCNC(=O)/C=C/c1ccc(Br)cc1 as the compound, how does the Potency read?
Answer: inactive

Question: For O=C(/C=C/c1ccccc1[N+](=O)[O-])N1CCCCC1, which Potency is on record?
Answer: inconclusive: 17.8 µM [quencher, side channel, partial curve]

Question: How did the Potency turn out when COc1ccc(N(CCC#N)S(=O)(=O)c2cccc3nsnc23)cc1 was run?
Answer: inconclusive: 12.6 µM [quencher, side channel, partial curve]

Question: For O=C(NCCNc1ccc([N+](=O)[O-])cc1Cl)c1ccccc1F, which Potency is on record?
Answer: inconclusive: 2.51 µM [quencher, side channel, full curve, poor fit]

Question: How did the Potency turn out when CCOc1ccc(C2=Nn3c(nnc3-c3ccc(OC)cc3)SC2)cc1 was run?
Answer: inactive

Question: With O=C(NCCc1csc(-c2ccccc2)n1)c1cccs1 as the compound, how does the Potency read?
Answer: inactive

Question: How did the Potency turn out when Cc1onc(-c2ccccc2)c1C(=O)N/N=C/c1cccc(O)c1 was run?
Answer: inactive

Question: COc1ccc(CN2C(=O)c3cccnc3C2=O)cc1S(=O)(=O)NCc1ccco1 was tested. Which Potency did it give?
Answer: inconclusive: 28.2 µM [quencher, side channel, single point]

Question: Which Potency does the source give for Cc1c(O)ccc(C(=O)CN2C(=O)c3ccccc3C2=O)c1O here?
Answer: inconclusive: 31.6 µM [quencher, side channel, single point]

Question: For Fc1ccc(C2CC(c3ccco3)n3ncnc3N2)cc1 (stereo unspecified), which Potency is on record?
Answer: inactive

Question: Which Potency does the source give for O=C(CSc1nc2ccc(Cl)cc2[nH]1)NC1CCCc2ccccc21 (stereo unspecified) here?
Answer: inactive

Question: With Cc1ccc(C(=O)c2ccc([N+](=O)[O-])cc2)cc1 as the compound, how does the Potency read?
Answer: inconclusive: 7.94 µM [quencher, side channel, partial curve]

Question: Which Potency does the source give for COc1cccc2cc(C(=O)C3=C(O)C(=O)N(c4cc(C)on4)C3c3cccs3)oc12 (stereo unspecified) here?
Answer: inactive

Question: For CC(/C=N/n1c(-c2ccncc2)n[nH]c1=S)=C\c1ccco1, which Potency is on record?
Answer: inconclusive: 12.6 µM [quencher, side channel, partial curve]

Question: How did the Potency turn out when O=C(CCl)NCCCN(C(=O)C(Cl)Cl)c1ccc([N+](=O)[O-])cc1 was run?
Answer: inconclusive: 14.1 µM [quencher, side channel, partial curve]

Question: For CCOc1ccc(NC(=O)NNC(=O)c2cccnc2)cc1, which Potency is on record?
Answer: inconclusive: 10 µM [quencher, side channel, partial curve, poor fit]

Question: CCN(CC)S(=O)(=O)c1cccc(-c2nnc(SCc3nnc(-c4ccccc4)o3)n2C)c1 was tested. Which Potency did it give?
Answer: inactive

Question: Which Potency does the source give for CC(C)[C@@H](CO)NC(=O)c1ccc2c3n(nc2c1)-c1ccc(Cl)cc1CO3 here?
Answer: inconclusive: 12.6 µM [quencher, side channel, partial curve]

Question: With CCCCc1ccc(Nc2nc(N3CCOCC3)nc(N3CCOCC3)n2)cc1 as the compound, how does the Potency read?
Answer: inconclusive: 31.6 µM [fluorescent, side channel, single point]

Question: Which Potency does the source give for CCn1c(N)c(C(=O)N2CCOCC2)sc1=S here?
Answer: inconclusive: 35.5 µM [quencher, side channel, single point]

Question: For O=C1N=c2ccc([N+](=O)[O-])cc2=C1c1sc(=O)[nH]c1O, which Potency is on record?
Answer: inconclusive: 4.47 µM [quencher, side channel, full curve]

Question: CN1CCc2nc(SCC(=O)Nc3ccc(F)cc3)c(C#N)cc2C1 was tested. Which Potency did it give?
Answer: inconclusive: 8.91 µM [quencher, side channel, partial curve]

Question: How did the Potency turn out when CCOC(=O)c1sc(=S)n(Cc2ccccc2)c1N was run?
Answer: inconclusive: 31.6 µM [quencher, side channel, single point]

Question: For COc1c2ccoc2nc2c(OC)cccc12, which Potency is on record?
Answer: inconclusive: 39.8 µM [quencher, side channel, single point]

Question: Which Potency does the source give for C/C(=N\NC(=O)C1COc2ccccc2O1)c1cccs1 (stereo unspecified) here?
Answer: inactive

Question: Which Potency does the source give for COc1cccc(NC(=O)C(Sc2nnc(Nc3ccccc3C)s2)c2ccccc2)c1 (stereo unspecified) here?
Answer: inconclusive: 39.8 µM [quencher, side channel, partial curve, poor fit]

Question: For Cc1ccc(-c2cc(C(=O)N3CCOCC3)no2)cc1, which Potency is on record?
Answer: inactive

Question: With CCOC(=O)c1ccc2[nH]c3c(c2c1)CCCCC3=O as the compound, how does the Potency read?
Answer: inactive

Question: CN(Cc1c(C(=O)N/N=C/c2cccc(F)c2)nnn1-c1nonc1N)c1ccccc1 was tested. Which Potency did it give?
Answer: inactive

Question: Which Potency does the source give for COc1ccc(-n2c(SCC(N)=O)nnc2-c2cccnc2)cc1 here?
Answer: inconclusive: 39.8 µM [quencher, side channel, single point]

Question: How did the Potency turn out when COc1cc(CN2CCN(c3ccccc3F)CC2)c([N+](=O)[O-])cc1OC was run?
Answer: inconclusive: 22.4 µM [quencher, side channel, single point]

Question: Which Potency does the source give for COc1ccc(OC)c(NC(=O)CSc2ncnc3c2cnn3-c2ccccc2Cl)c1 here?
Answer: inconclusive: 1.12 µM [fluorescent, side channel, full curve, poor fit]

Question: Which Potency does the source give for O=C(CN1C(=O)/C(=C/c2ccc(F)cc2)SC1=S)N1CCN(CCc2ccccn2)CC1 here?
Answer: inconclusive: 3.55 µM [quencher, side channel, full curve]

Question: Which Potency does the source give for COc1ccc(C(=O)c2sc3nc(C)cc(-c4cccs4)c3c2N)cc1OC here?
Answer: inactive

Question: With O=C(c1cc2c(ccc3ccccc32)oc1=O)N1CCN(CCO)CC1 as the compound, how does the Potency read?
Answer: inconclusive: 28.2 µM [activator, partial curve]

Question: For C/C(=N\NS(=O)(=O)c1cccc([N+](=O)[O-])c1)c1cccnc1, which Potency is on record?
Answer: inconclusive: 31.6 µM [quencher, side channel, single point]

Question: With CC1C(=O)N(c2ccc(S(=O)(=O)N(C)C)cc2)C1(/C=C/c1ccccc1)C(=O)NC1CCCC1 (stereo unspecified) as the compound, how does the Potency read?
Answer: inconclusive: 3.16 µM [fluorescent, side channel, partial curve]

Question: For Cc1ccc(S(=O)(=O)Nc2cc(C(F)(F)F)ccc2N2CCOCC2)cc1, which Potency is on record?
Answer: inactive

Question: How did the Potency turn out when CCOc1cc(C2C3=C(CCCC3=O)OC3=C2C(=O)CCC3)cc([N+](=O)[O-])c1O was run?
Answer: inconclusive: 10 µM [quencher, side channel, partial curve]

Question: With Cc1ccc(-c2nc3ncccn3c2Nc2ccc3c(c2)OCCO3)o1 as the compound, how does the Potency read?
Answer: inconclusive: 20 µM [quencher, side channel, partial curve]

Question: How did the Potency turn out when CCOc1ccc(NC(=O)C2(c3ccc(OC)c(OC)c3)CCCC2)cc1 was run?
Answer: inconclusive: 0.316 µM [fluorescent, side channel, full curve]

Question: For CCOC(=O)c1ccc(N/C=C2\CCCCC2=O)cc1, which Potency is on record?
Answer: inconclusive: 15.8 µM [quencher, side channel, partial curve]

Question: For Cc1ccc(-c2onc3ccc(C(=O)/C=C/N(C)C)cc23)cc1, which Potency is on record?
Answer: inconclusive: 39.8 µM [quencher, single point]

Question: How did the Potency turn out when CS(=O)(=O)Nc1cccc(C2=NN(C(=O)CCCC(=O)O)C(c3cccs3)C2)c1 (stereo unspecified) was run?
Answer: inconclusive: 31.6 µM [quencher, side channel, single point]

Question: Which Potency does the source give for O=C(CNc1n[nH]c(=O)[nH]c1=O)N/N=C/C=C/c1ccccc1 here?
Answer: inconclusive: 25.1 µM [quencher, side channel, partial curve]

Question: O=C(CSC1=NC(=O)C(c2ccccc2)C(=O)N1)Nc1ccccc1[N+](=O)[O-] (stereo unspecified) was tested. Which Potency did it give?
Answer: inconclusive: 17.8 µM [quencher, side channel, partial curve]
